Results on four compounds are retold here after PubChem BioAssay AID280 (DTP/NCI, 2004).

The experiment has as its system nude mice, LOX melanoma ip, survival T/C. The experiment in a line: NCI In Vivo Anticancer Drug Screen. Data for tumor model Human Amelanotic Melanoma (LOX) (intraperitoneal) in NU/NU BALB/C (nude) mice. Conditions: endpoint: median survival time, schedule: Q04DX003 (ip), higher = longer survival. Here is the method:
The antitumor activity of compounds was measured in mice bearing transplantable tumors. Survival or tumor size were measured and the results are expressed as the measurement made in the treated group (T) divided by the measurement made in the vehicle treated control group (C). The tumor model used in this assay is Human Amelanotic Melanoma (LOX) (intraperitoneal) in NU/NU BALB/C (nude) mice

Toxic doses and inconclusive results are not listed. A number of entries come with more than one value. This is not the full list of results. An entry can have further records. The values listed for one entry differ for a reason that is not stated; some may be repeats, others may stem from another dose, organism or construct than stated.

In the case of `Cc1c(N)nc([C@H](CC(N)=O)NC[C@H](N)C(N)=O)nc1C(=O)N[C@H](C(=O)N[C@H](C)[C@@H](O)[C@H](C)C(=O)N[C@H](C(=O)NCCc1nc(-c2nc(C(=O)NCCC[S+](C)C)cs2)cs1)[C@@H](C)O)C(OC1OC(CO)C(O)C(O)C1OC1OC(CO)C(O)C(OC(N)=O)C1O)c1cnc[nH]1` (stereo not given in full), the T/C (dose: 16.0 mg/kg/injection, vehicle: saline) is 107 % of control and 167 % of control. In the case of `CN(C)/N=N/c1nc[nH]c1C(N)=O`, the T/C is 112 % of control and 160 % of control (dose: 150.0 mg/kg/injection, vehicle: Klucel (hydroxypropylcellulose) (HPC)); 111 % of control and 171 % of control (dose: 225.0 mg/kg/injection, vehicle: Klucel (hydroxypropylcellulose) (HPC)). For the compound `O=C(O)CCCc1ccc(N(CCCl)CCCl)cc1`, under “dose: 18.0 mg/kg/injection, vehicle: Klucel (hydroxypropylcellulose) (HPC)”, the T/C is listed as 107 % of control, 159 % of control, 179 % of control. Regarding `N[C@@H](Cc1ccc(N(CCCl)CCCl)cc1)C(=O)O`, the T/C (dose: 4.0 mg/kg/injection, vehicle: saline) was 107 % of control and 181 % of control.
